Assay results: paper PMC9911399, “Two distinct binding modes provide the RNA-binding protein RbFox with extraordinary sequence specificity”
Residue numbers refer to the chain shown, from its start. The list shows a part of the results.

T1: RBFOX1 RRM (Homo sapiens, UniProt Q9NWB1 109-208)
T1 sequence: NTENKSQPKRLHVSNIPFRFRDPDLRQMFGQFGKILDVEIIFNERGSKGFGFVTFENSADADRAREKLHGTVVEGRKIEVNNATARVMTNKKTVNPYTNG

B1: UCUCCAG (DNA:RNA)
RNA: GGGAGACCGGAAUUCAGAUUGUCCUCUCCAGUUAAAUCCCGUCGUAGCCACCA
DNA 1: CAATCTGAATTCCGGTCTCCC
DNA 2: TGGTGGCTACGACGGGATT
B2: GGCGUUA (DNA:RNA)
RNA: GGGAGACCGGAAUUCAGAUUGUCCGGCGUUAUUAAAUCCCGUCGUAGCCACCA
DNA 1: CAATCTGAATTCCGGTCTCCC
DNA 2: TGGTGGCTACGACGGGATT
B3: GCCUUUU (DNA:RNA)
RNA: B2 RNA with G26C, G28U, A31U
DNA 1: CAATCTGAATTCCGGTCTCCC
DNA 2: TGGTGGCTACGACGGGATT
B4: GACAUGG (DNA:RNA)
RNA: B2 RNA with G26A, G28A, U30G, A31G
DNA 1: CAATCTGAATTCCGGTCTCCC
DNA 2: TGGTGGCTACGACGGGATT
B5: UAACCGA (DNA:RNA)
RNA: B1 RNA with C26A, U27A, A30G, G31A
DNA 1: CAATCTGAATTCCGGTCTCCC
DNA 2: TGGTGGCTACGACGGGATT
B6: AGGGUCA (DNA:RNA)
RNA: B2 RNA with G25A, C27G, U30C
DNA 1: CAATCTGAATTCCGGTCTCCC
DNA 2: TGGTGGCTACGACGGGATT
B7: GUUUCAG (DNA:RNA)
RNA: B1 RNA with U25G, C26U, C28U
DNA 1: CAATCTGAATTCCGGTCTCCC
DNA 2: TGGTGGCTACGACGGGATT
B8: UUACCAG (DNA:RNA)
RNA: B1 RNA with C26U, U27A
DNA 1: CAATCTGAATTCCGGTCTCCC
DNA 2: TGGTGGCTACGACGGGATT
B9: GAUUCUC (DNA:RNA)
RNA: B2 RNA with G26A, C27U, G28U, U29C, A31C
DNA 1: CAATCTGAATTCCGGTCTCCC
DNA 2: TGGTGGCTACGACGGGATT
B10: GUUAUUG (DNA:RNA)
RNA: B2 RNA with G26U, C27U, G28A, A31G
DNA 1: CAATCTGAATTCCGGTCTCCC
DNA 2: TGGTGGCTACGACGGGATT
B11: GCAGGGA (DNA:RNA)
RNA: B2 RNA with G26C, C27A, U29G, U30G
DNA 1: CAATCTGAATTCCGGTCTCCC
DNA 2: TGGTGGCTACGACGGGATT
B12: CCCUGAU (DNA:RNA)
RNA: B1 RNA with U25C, U27C, C28U, C29G, G31U
DNA 1: CAATCTGAATTCCGGTCTCCC
DNA 2: TGGTGGCTACGACGGGATT
B13: GCAGUUC (DNA:RNA)
RNA: B2 RNA with G26C, C27A, A31C
DNA 1: CAATCTGAATTCCGGTCTCCC
DNA 2: TGGTGGCTACGACGGGATT
B14: CUGCAUU (DNA:RNA)
RNA: B2 RNA with G25C, G26U, C27G, G28C, U29A, A31U
DNA 1: CAATCTGAATTCCGGTCTCCC
DNA 2: TGGTGGCTACGACGGGATT
B15: GCGCGAC (DNA:RNA)
RNA: B1 RNA with U25G, U27G, C29G, G31C
DNA 1: CAATCTGAATTCCGGTCTCCC
DNA 2: TGGTGGCTACGACGGGATT
B16: ACAUCGG (DNA:RNA)
RNA: B1 RNA with U25A, U27A, C28U, A30G
DNA 1: CAATCTGAATTCCGGTCTCCC
DNA 2: TGGTGGCTACGACGGGATT
B17: CCGCCUG (DNA:RNA)
RNA: B1 RNA with U25C, U27G, A30U
DNA 1: CAATCTGAATTCCGGTCTCCC
DNA 2: TGGTGGCTACGACGGGATT
B18: ACGGCUC (DNA:RNA)
RNA: B2 RNA with G25A, G26C, C27G, U29C, A31C
DNA 1: CAATCTGAATTCCGGTCTCCC
DNA 2: TGGTGGCTACGACGGGATT
B19: GUGUAGA (DNA:RNA)
RNA: B2 RNA with G26U, C27G, G28U, U29A, U30G
DNA 1: CAATCTGAATTCCGGTCTCCC
DNA 2: TGGTGGCTACGACGGGATT
B20: GCACCAA (DNA:RNA)
RNA: B1 RNA with U25G, U27A, G31A
DNA 1: CAATCTGAATTCCGGTCTCCC
DNA 2: TGGTGGCTACGACGGGATT

Each binder was assayed against T1, RBFOX1 RRM (assay: EMSA; HiTS-Eq, 1 nM pool, 10 min; buffer printed only for the single-RNA assays: 10 mM Tris pH 7.5, 150 mM NaCl, 3.4 mM EDTA, 0.001% NP-40, 30 C). Settings: tags: His6 N-terminal (pET28a); label: 5' 32P.
Method in brief: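 Relative association constants, normalised to the cognate motif, were derived by comparing read counts of each RNA species with those of the control reaction. The RNA sequenced was the free fraction, separated by 8% native PAGE after a 10 min equilibration in 50 µL of 1 nM 5′-radiolabelled RNA (7 randomized nucleotides) with increasing concentrations of purified wild-type or mutant RbFox RRM.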
In the case of B1, the binding signal is reported as 0.00859 KA relative to UGCAUGU. B2 was tested, and the binding signal was 0.00893 KA relative to UGCAUGU. In the case of B3, the binding signal is reported as 0.0103 KA relative to UGCAUGU. For B4, the binding signal was 0.0117 KA relative to UGCAUGU. In the case of B5, the binding signal is reported as 0.00558 KA relative to UGCAUGU. With B6 the binding signal was 0.0139 KA relative to UGCAUGU. With B7 the binding signal was 0.0198 KA relative to UGCAUGU. B8 was tested, and the binding signal was 0.00776 KA relative to UGCAUGU. B9 was tested, and the binding signal was 0.017 KA relative to UGCAUGU. With B10 the binding signal was 0.0161 KA relative to UGCAUGU. B11 was tested, and the binding signal was 0.0126 KA relative to UGCAUGU. In the case of B12, the binding signal is reported as 0.0113 KA relative to UGCAUGU. B13 was tested, and the binding signal was 0.0108 KA relative to UGCAUGU. B14 was tested, and the binding signal was 0.0136 KA relative to UGCAUGU. With B15 the binding signal was 0.00894 KA relative to UGCAUGU. In the case of B16, the binding signal is reported as 0.00389 KA relative to UGCAUGU. For B17, the binding signal was 0.0178 KA relative to UGCAUGU. With B18 the binding signal was 0.0105 KA relative to UGCAUGU. For B19, the binding signal was 0.0144 KA relative to UGCAUGU. In the case of B20, the binding signal is reported as 0.00836 KA relative to UGCAUGU.
